From the supplement of paper PMC10320760
The data scatter; read single values as rough.

B1: Ydj1; a variant is named by its letters at X, in order (parent)
chain: MVKETKFYDILGVPVTATDVEIKKAYRKCALKYHPDKNPSEEAAEKFKEASAAYEILSDPEKRDIYDQFGEDGLSGAGGAGGFPGGGFGFGDDIFSQFFGAGGAQRPRGPQRGKDIKHEISASLEELYKGRTAKLALNKQILCKECEGRGGKKGAVKKCTSCNGQGIKFVTRQMGPMIQRFQTECDVCHGTGDIIDPKDRCKSCNGKKVENERKILEVHVEPGMKDGQRIVFKGEADQAPDVIPGDVVFIVSERPHKSFKRDGDDLVYEAEIDLLTAIAGGEFALEHVSGDWLKVGIVPGEVIAPGMRKVIEGKGMPIPKYGGYGNLIIKFTIKFPENHFTSEENLKKLEEILPPRIVPAIPKKATVDECVLADFDPAKYNRTRASRGGANYDSDEEEQGGEGVQCXXX

Variants of: B1
Assay: enrichment factor, frequency at 37 °C / frequency at 25 °C (thermotolerance selection) (ratio); higher = more growth at 37 °C, higher likelihood of farnesylation
Details: with Saccharomyces cerevisiae ydj1Δ (yWS304); selective temperature 37 °C; reference temperature 25 °C

| Variant | enrichment factor |
| --- | --- |
| RVA | 0.91 |
| RVC | 0.824 |
| RVD | 1.28 |
| FVA | 2.32 |
| FVD | 2.18 |
| FVC | 1.16 |
| QVC | 1.91 |
| QVA | 1.97 |
| QVD | 1.53 |
| GVD | 1.31 |
| GVA | 1.1 |
| GVC | 0.769 |
| YVC | 2.03 |
| YVA | 1.16 |
| NVC | 1.51 |
| NVA | 1.95 |
| NVD | 2.72 |
| RTR | 0.146 |
| RTT | 1.62 |
| RTN | 1.97 |
| RTY | 1.68 |
| RTH | 2.28 |
| RTK | 0.282 |
| RTW | 1.29 |

| Variant | enrichment factor |
| --- | --- |
| RTV | 1.8 |
| RTP | 0.0987 |
| RTS | 2.7 |
| RTI | 1.69 |
| RTQ | 1.53 |
| RTL | 1.87 |
| RTM | 2.13 |
| CTH | 1.62 |
| CTP | 0.814 |
| CTM | 1.37 |
| CTT | 1.84 |
| CTW | 0.943 |
| CTV | 0.993 |
| CTK | 1.23 |
| CTL | 1.41 |
| CTI | 0.421 |
| CTS | 1.29 |
| CTR | 0.198 |
| CTY | 1.21 |
| CTQ | 1.42 |
| CTN | 1.52 |
| PTT | 1.34 |
| PTI | 1.72 |
| PTY | 1.8 |

| Variant | enrichment factor |
| --- | --- |
| PTK | 0.686 |
| PTM | 1.34 |
| PTQ | 1.33 |
| PTP | 0.0911 |
| PTL | 1.46 |
| PTV | 1.41 |
| PTH | 1.66 |
| PTN | 1.63 |
| PTR | 0.0891 |
| PTS | 1.71 |
| PTW | 1.64 |
| TTW | 1.57 |
| TTM | 2.26 |
| TTT | 2.1 |
| TTV | 2.22 |
| TTS | 2.38 |
| TTK | 0.703 |
| TTI | 1.98 |
| TTP | 0.0943 |
| TTH | 2.07 |
| TTQ | 1.54 |
| TTR | 0.132 |
| TTL | 1.98 |
| TTN | 1.44 |

| Variant | enrichment factor |
| --- | --- |
| TTY | 1.88 |
| MTI | 2.75 |
| MTT | 1.58 |
| MTM | 3.67 |
| MTR | 0.133 |
| MTQ | 1.65 |
| MTY | 1.4 |
| MTH | 1.88 |
| MTK | 0.178 |
| MTL | 1.95 |
| MTN | 1.59 |
| MTP | 0.147 |
| MTV | 3.91 |
| MTS | 1.75 |
| MTW | 1.29 |
| PVA | 1.84 |
| PVD | 1.48 |
| PVC | 1.02 |
| ITQ | 1.22 |
| ITR | 0.198 |
| ITN | 1.48 |
| ITK | 1.37 |
| ITP | 0.125 |
| ITI | 1.87 |

| Variant | enrichment factor |
| --- | --- |
| ITV | 1.65 |
| ITS | 1.52 |
| ITL | 1.21 |
| ITW | 0.669 |
| ITM | 1.28 |
| ITT | 1.37 |
| ITY | 0.901 |
| ITH | 1.4 |
| QTY | 2.03 |
| QTH | 1.83 |
| QTS | 1.68 |
| QTW | 1.58 |
| QTN | 1.83 |
| QTT | 1.85 |
| QTV | 2.48 |
| QTP | 0.141 |
| QTM | 2.14 |
| QTK | 0.481 |
| QTQ | 2.1 |
| QTR | 0.202 |
| QTI | 2.38 |
| QTL | 2.87 |
| VTH | 2.12 |
| VTM | 2.08 |

| Variant | enrichment factor |
| --- | --- |
| VTT | 1.95 |
| VTQ | 1.55 |
| VTY | 2.71 |
| VTL | 1.9 |
| VTW | 1.9 |
| VTN | 1.42 |
| VTP | 0.0901 |
| VTI | 1.97 |
| VTV | 2.51 |
| VTK | 1.52 |
| VTR | 0.479 |
| VTS | 2.26 |
| WTP | 0.828 |
| WTM | 1.16 |
| WTY | 1.48 |
| WTN | 2.52 |
| WTV | 1.83 |
| WTS | 4.16 |
| WTK | 1.32 |
| WTQ | 1.52 |
| WTI | 2.03 |
| WTW | 1.78 |
| WTL | 1.52 |
| WTT | 2 |

| Variant | enrichment factor |
| --- | --- |
| WTR | 1.51 |
| WTH | 1.49 |
| GTP | 0.162 |
| GTN | 1.65 |
| GTL | 1.37 |
| GTQ | 1.29 |
| GTV | 1.49 |
| GTR | 0.184 |
| GTM | 1.4 |
| GTI | 1.69 |
| GTH | 1.74 |
| GTY | 2.19 |
| GTT | 1.67 |
| GTW | 0.814 |
| GTK | 0.152 |
| GTS | 1.44 |
| FTW | 1.26 |
| FTP | 1.38 |
| FTR | 0.241 |
| FTV | 1.3 |
| FTN | 1.87 |
| FTL | 2.21 |
| FTK | 0.253 |
